Laboratory results as given in PubChem BioAssay AID651670 (Sanford-Burnham Center for Chemical Genomics, 2012).
A number of entries come with more than one value. This is not the full list of results. There may be further records.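 Rule for the calls: active = IC50 at or below 20 µM; inactive = the rest.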 Values given together are repeated measurements across runs, samples, wells, individuals or studies. Records carry a tag for their origin. Letters count within one entry.

Molecular target: Fatty acid synthase (Homo sapiens) (UniProt P49327)
UniProt P49327, sequence (P49327 whole entry, looked up): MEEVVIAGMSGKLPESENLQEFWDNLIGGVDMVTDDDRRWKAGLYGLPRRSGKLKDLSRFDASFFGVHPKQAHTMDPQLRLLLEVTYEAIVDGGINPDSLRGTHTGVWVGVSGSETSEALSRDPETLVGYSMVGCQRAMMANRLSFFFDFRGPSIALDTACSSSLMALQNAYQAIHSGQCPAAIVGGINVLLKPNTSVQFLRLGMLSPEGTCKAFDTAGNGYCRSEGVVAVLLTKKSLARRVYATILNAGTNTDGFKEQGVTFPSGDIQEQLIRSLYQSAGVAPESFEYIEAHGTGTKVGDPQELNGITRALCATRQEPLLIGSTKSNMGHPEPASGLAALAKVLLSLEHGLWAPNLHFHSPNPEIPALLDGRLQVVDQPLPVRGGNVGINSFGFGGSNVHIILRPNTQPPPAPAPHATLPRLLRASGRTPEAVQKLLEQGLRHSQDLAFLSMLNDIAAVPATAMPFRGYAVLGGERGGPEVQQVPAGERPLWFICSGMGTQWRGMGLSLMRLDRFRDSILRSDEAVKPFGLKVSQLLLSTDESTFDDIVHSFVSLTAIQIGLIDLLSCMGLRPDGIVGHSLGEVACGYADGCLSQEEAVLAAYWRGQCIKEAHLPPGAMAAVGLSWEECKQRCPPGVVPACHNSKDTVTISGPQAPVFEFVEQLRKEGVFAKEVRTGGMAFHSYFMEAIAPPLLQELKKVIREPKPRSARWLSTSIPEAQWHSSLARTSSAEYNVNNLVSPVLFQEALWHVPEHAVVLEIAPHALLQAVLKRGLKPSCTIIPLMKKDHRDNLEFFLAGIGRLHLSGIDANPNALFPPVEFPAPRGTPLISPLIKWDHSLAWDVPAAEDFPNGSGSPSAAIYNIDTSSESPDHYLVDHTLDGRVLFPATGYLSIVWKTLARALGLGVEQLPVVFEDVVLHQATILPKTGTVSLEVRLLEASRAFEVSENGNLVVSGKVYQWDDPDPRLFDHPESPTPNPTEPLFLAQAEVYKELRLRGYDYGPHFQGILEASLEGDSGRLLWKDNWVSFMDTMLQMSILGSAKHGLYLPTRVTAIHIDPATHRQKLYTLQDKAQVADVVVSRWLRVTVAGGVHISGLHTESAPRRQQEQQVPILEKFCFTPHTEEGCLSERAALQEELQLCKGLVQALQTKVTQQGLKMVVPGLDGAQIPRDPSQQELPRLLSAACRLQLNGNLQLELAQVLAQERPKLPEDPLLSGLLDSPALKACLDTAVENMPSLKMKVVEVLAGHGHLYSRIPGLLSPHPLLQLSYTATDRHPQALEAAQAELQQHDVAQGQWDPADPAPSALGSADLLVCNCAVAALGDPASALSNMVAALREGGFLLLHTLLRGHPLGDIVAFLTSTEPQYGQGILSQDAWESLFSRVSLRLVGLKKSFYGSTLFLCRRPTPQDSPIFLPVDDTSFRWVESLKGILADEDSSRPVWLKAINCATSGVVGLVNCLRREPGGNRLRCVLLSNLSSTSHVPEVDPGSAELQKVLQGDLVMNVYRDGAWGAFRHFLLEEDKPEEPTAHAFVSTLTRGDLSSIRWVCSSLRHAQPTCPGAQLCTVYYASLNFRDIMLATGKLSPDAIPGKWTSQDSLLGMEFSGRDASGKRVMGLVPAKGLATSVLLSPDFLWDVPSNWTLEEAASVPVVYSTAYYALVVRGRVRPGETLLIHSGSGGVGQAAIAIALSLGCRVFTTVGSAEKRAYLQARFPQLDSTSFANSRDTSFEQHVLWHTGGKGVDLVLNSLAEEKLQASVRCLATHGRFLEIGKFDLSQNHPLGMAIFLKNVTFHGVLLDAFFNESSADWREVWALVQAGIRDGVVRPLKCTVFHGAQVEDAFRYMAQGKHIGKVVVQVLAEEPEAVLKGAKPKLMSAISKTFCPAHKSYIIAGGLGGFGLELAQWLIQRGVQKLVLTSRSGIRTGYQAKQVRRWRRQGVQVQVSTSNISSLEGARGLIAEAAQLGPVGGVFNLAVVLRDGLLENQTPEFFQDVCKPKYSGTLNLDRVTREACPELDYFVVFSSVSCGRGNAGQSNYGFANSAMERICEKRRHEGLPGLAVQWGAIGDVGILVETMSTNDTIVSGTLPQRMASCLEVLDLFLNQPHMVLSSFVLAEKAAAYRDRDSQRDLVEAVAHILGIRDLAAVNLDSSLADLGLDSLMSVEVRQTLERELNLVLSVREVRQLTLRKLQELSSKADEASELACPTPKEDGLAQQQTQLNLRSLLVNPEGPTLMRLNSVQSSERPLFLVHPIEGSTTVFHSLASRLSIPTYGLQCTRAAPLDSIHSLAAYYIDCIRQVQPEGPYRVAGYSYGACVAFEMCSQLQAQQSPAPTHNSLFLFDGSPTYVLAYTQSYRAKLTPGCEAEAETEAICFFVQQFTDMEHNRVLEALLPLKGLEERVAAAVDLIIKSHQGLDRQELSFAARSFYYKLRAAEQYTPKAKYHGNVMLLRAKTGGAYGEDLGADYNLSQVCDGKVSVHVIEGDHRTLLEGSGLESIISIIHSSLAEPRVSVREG
Assay: inhibition of human FAS-TE enzyme activity – biochemical, endpoint fluorescence intensity, analogs, SAR follow-up (AID 651670)
Conditions: recombinant FAS-TE, OMFH fluorogenic substrate

Q: How did the IC50 turn out when `COc1ccc(CN(C)C(=O)Cc2ccc(S(=O)(=O)N3CCCCC3)s2)cc1` was run?
A: inactive [sample A] and 17.6 µM [sample B]
